Measurements as given in PubChem BioAssay AID1346428 (National Center for Advancing Translational Sciences (NCATS), 2018).
Hit rate of the full screen: of about 48,000 compounds, about 1,200 (2.5%) were called active. This list was built around the results that the source calls inconclusive (neither active nor inactive); the mix of calls is not that of the screen.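 The calls were made as follows: active = activation of at least 60% and not above a set upper limit (about 1 call in 100 departs from these limits); inconclusive = activation of 40% to 60%, or above that upper limit; inactive = activation under 40%.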

molecular target: Probable G-protein coupled receptor 32 (Homo sapiens) (UniProt O75388); assay: qHTS for Agonists of Human Resolvin D1 Receptor DRV1; details: CHO-K1 GPR32 beta-arrestin PathHunter luminescence, 90 min; at 76.9 µM; active compounds read high; zero percent set by DMSO-only wells; also: 0% is about no effect
Outline: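 Using DMSO wells as EC0, agonist-induced signal was taken as chemiluminescence from beta-Gal reconstituted upon beta-arrestin recruitment to GPR32 in CHO-K1 cells after 90 min compound treatment.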

Chain of UniProt O75388 (O75388 whole entry, looked up): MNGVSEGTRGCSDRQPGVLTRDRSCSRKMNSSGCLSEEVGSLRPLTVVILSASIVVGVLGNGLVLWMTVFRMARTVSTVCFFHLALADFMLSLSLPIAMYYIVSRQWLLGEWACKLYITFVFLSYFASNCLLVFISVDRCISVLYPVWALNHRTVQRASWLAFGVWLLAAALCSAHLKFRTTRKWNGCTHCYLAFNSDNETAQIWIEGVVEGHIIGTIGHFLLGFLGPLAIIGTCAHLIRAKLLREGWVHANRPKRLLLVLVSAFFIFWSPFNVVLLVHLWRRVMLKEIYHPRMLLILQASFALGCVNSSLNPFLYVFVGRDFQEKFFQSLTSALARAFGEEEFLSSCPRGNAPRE

Structure (SMILES)	activation
COc1ccc(NC(=O)c2sc3nc4c(cc3c2N)CCCCCC4)cc1OC	inconclusive: 159%
O=C(Nc1ccccc1F)c1ccc(-c2ccccc2)s1	inconclusive: 133%
O=C(COc1ccc(Cl)cc1)NCCc1csc(-c2ccc(F)cc2)n1	active: 109%
O=C(Nc1cccc(-c2nc3ccccc3o2)c1)c1cccc(Br)c1	inactive: -18.9%
Cn1nc(-c2ccc(C(=O)Nc3cccc(C(F)(F)F)c3)cc2)c2ccccc2c1=O	inactive: 4.54%
CCOc1ccc(NS(=O)(=O)c2ccc3[nH]cc(C(=O)NCc4ccccc4)c(=O)c3c2)cc1	inconclusive: 59%
Cc1n[nH]c(C)c1S(=O)(=O)N1CCCC(C(=O)Nc2ccc(Br)cc2)C1 (stereo not drawn)	inconclusive: 57.4%
Cc1cc(C)cc(Nc2cc(C(=O)NCCCN(Cc3ccccc3)C(C)C)c3ccccc3n2)c1	inconclusive: 133%
CC(=O)Nc1ccc(NS(=O)(=O)c2ccc3c(c2)CC(C)N3C(=O)C2CCC2)cc1 (stereo not drawn)	inconclusive: 51.4%
Cc1nn(-c2ccc(F)cc2)c(-n2cccc2)c1C(=O)NCCCN1CCN(c2cccc(Cl)c2)CC1	inconclusive: 51.4%
CC1CCc2c(sc(NC(=O)c3ccc(Cl)cc3Cl)c2C#N)C1 (stereo not drawn)	active: 106%
COc1ccc(CNC(=O)c2cc3cc(S(=O)(=O)N4CCCCC4)ccc3n2C)c(OC)c1	inactive: -3.13%
Cc1nnc(SCC2=C(C(=O)O)N3C(=O)[C@@H](NC(=O)Cn4cnnn4)[C@H]3SC2)s1	inconclusive: 144%
Cc1ccc(-n2c(SCC(=O)NCc3ccccc3)nc3n[nH]c(C)c3c2=N)cc1Cl	inconclusive: 57.6%
Cc1ccc(CN(C(=O)COc2ccc(Cl)c(C)c2)c2ccccn2)o1	inconclusive: 57.3%
COc1cc(C2c3c(-c4c(C)cc(C)cc4O)n[nH]c3C(=O)N2CCO)cc(OC)c1OC (stereo not drawn)	inconclusive: 50.9%
COC(=O)c1ccc(NC(=O)C(=O)NCCc2csc3nc(-c4ccccc4F)nn23)cc1	inconclusive: 51.5%
O=C(CCCN1CCC(O)(c2ccc(Cl)cc2)CC1)c1ccc(F)cc1	inconclusive: 59.7%
COc1ccc(CCNC(=O)c2ccc3[nH]c(C)c(C)c3c2)cc1OC	active: 113%
COc1ccc(-n2ccnc(NCCc3ccc(S(N)(=O)=O)cc3)c2=O)cc1Cl	inconclusive: 146%
C[C@H](NC(=O)OC(C)(C)C)c1nnc(SCc2ccc(Cl)cc2Cl)o1	inconclusive: 50%
COc1cc(OC)c(NC(=O)c2cnc(N3CCCC3)nc2C)cc1Cl	inconclusive: 52.4%
O=S1(=O)N=C(Nc2cccc(C(F)(F)F)c2)c2ccccc21	inconclusive: 59.9%
Cc1ccc(NC(=O)Cn2c(=O)nc(-c3ccccc3F)c3cc(Cl)ccc32)c(Br)c1	inactive: 4%
CCOc1ccccc1Nc1sc(C(=O)c2ccc(Cl)cc2)c(N)c1C#N	inconclusive: 307%
Cc1ccc2nc(/C(C#N)=C/c3ccc(-c4ccc(F)cc4F)o3)[nH]c2c1	inactive: -12.1%
CCCn1c2ccccc2c2cnn(CC(=O)NCCc3cc(OC)ccc3OC)c(=O)c21	inconclusive: 254%

Structure (SMILES)	activation
COc1ccc(CCNC(=O)Cn2c(-c3cccs3)cc3cc(F)ccc32)cc1OC	inconclusive: 50.3%
Cc1ccc(NC(=O)Nc2ccc3nc(N4CCN(C)CC4)cc(C)c3c2)cc1C	inconclusive: 175%
O=C(NCc1ccco1)c1c[nH]c2ccc(S(=O)(=O)Nc3ccc(F)cc3F)cc2c1=O	active: 62.8%
CCOc1ccccc1CNC(=O)CN(c1ccc(C)cc1)S(=O)(=O)N(C)C	inconclusive: 187%
O=C(CC(c1cccs1)N1Cc2ccccc2C1=O)Nc1ccccc1 (stereo not drawn)	inactive: 30%
Nc1nc(N)c(-c2ccccc2)s1	inconclusive: 50.7%
COc1cc(/C=C(\C#N)C(=O)c2ccc(O)c(O)c2)cc(I)c1O	inactive: -19.6%
Cc1nc2c3ccccc3nc(NNC(=O)CCC(=O)N3CCN(c4cccc(C(F)(F)F)c4)CC3)n2n1	inactive: -18.4%
Cc1cccc(NC(=O)COc2cccc3c(=O)n(C)ccc23)c1C	inconclusive: 128%
CCN(CC)CCCN(c1ccccc1)C1Cc2ccccc2C1	inconclusive: 55.6%
CCOc1ccc(-c2oc3cc(Cl)ccc3c(=O)c2O)cc1OC	inactive: -0.592%
Cc1ccc(C(=O)C(C)CN2CCCCC2)cc1 (stereo not drawn)	inactive: -11.7%
CCCCN(CC)C(=O)c1cc2c(=O)n3cccc(C)c3nc2s1	inconclusive: 54%
CC(CNC(=O)CCCn1c(=O)c2cccn2c2ccccc21)c1ccccc1 (stereo not drawn)	inconclusive: 55.9%
O=C(NCCCc1nc2ccccc2n1Cc1ccccc1)C1CCCCC1	inconclusive: 57.9%
CNCCCCOc1ccccc1Cc1ccccc1	inconclusive: 59.7%
CCCCCn1c(-c2cccc(C)c2)nc2ccccc21	inconclusive: 50.8%
COc1cc(Cl)c(NC(=O)CN(C)S(=O)(=O)c2ccc3c(c2)CCCC(=O)N3)c(OC)c1	active: 66.9%
CC1=CC(=O)c2ccccc2C1=O	active: 62.4%
C[C@@H]1O[C@@H](OC[C@H]2O[C@@H](Oc3c(-c4ccc(O)c(O)c4)oc4cc(O)cc(O)c4c3=O)[C@H](O)[C@@H](O)[C@@H]2O)[C@H](O)[C@H](O)[C@H]1O	inactive: -33.9%
O=S(=O)(c1ccc(-c2csc(=Nc3ccc(F)cc3)n2CCCCCCO)cc1)N1CCCC1	inconclusive: 51%
Cc1ccc(Cl)cc1N1CCN(S(=O)(=O)c2ccc3c(c2)C(C(C)C)C(=O)N3)CC1 (stereo not drawn)	inconclusive: 57.6%
CC(C)COc1ccc(C(=O)Nc2nnc(S(=O)(=O)N(C)Cc3ccco3)s2)cc1	inconclusive: 57.8%
CCc1ccccc1Nc1ncnc2c1cnn2-c1ccc(C)cc1C	inconclusive: 218%
COc1ccc(Cn2c(CO)cnc2SCc2cccc(C)c2)cc1	inconclusive: 51.9%
Cc1cccc(N2CCN(C(=O)C3CCN(S(=O)(=O)c4c(C)noc4C)CC3)CC2)c1C	inactive: 0.708%
